# According to the supplement of paper PMC8728848:
# The list shows a part of the results.
# Key:
# Assay in all cases: glycan array binding signal (z-score within array); higher = stronger binding
# Details in all cases: glycan notation: IUPAC condensed, linker removed
# [1] = target: Neu5Ac(a2-3)Gal(b1-4)GlcNAc(b1-3)Gal
# In short: (§1)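 Glycan array data were curated from 3228 arrays in the Consortium for Functional Glycomics database and kept only where the protein sequence was available. Glycan names were converted to IUPAC-condensed notation, and columns mapping to the same glycan were averaged. The binding signal is a within-array Z-score, averaged across arrays of the same protein sequence at different concentrations or buffers and across linkers. Negative Z-scores can be read as non-binding.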
# [2] = target: Neu5Ac(a2-3)Gal(b1-4)GlcNAc(b1-3)Gal(b1-3)GlcNAc
# In short: as §1
# [3] = target: Neu5Ac(a2-3)Gal(b1-4)GlcNAc(b1-3)Gal(b1-4)GlcNAc
# In short: as §1
# [4] = target: Neu5Ac(a2-3)Gal(b1-4)GlcNAc(b1-3)Gal(b1-4)GlcNAc(b1-3)Gal(b1-4)GlcNAc
# In short: as §1
# [5] = target: Neu5Ac(a2-3)Gal(b1-4)GlcNAc(b1-3)Gal(b1-4)[Fuc(a1-3)]GlcNAc
# In short: as §1
# [6] = target: Neu5Ac(a2-3)Gal(b1-4)GlcNAc(b1-3)GalNAc
# In short: as §1
# [7] = target: Neu5Ac(a2-3)Gal(b1-4)GlcNAc(b1-6)[Gal(b1-3)]GalNAc
# In short: as §1
# [8] = target: Neu5Ac(a2-3)Gal(b1-4)GlcNAc(b1-6)[Neu5Ac(a2-3)Gal(b1-3)]GalNAc
# In short: as §1
# [9] = target: Neu5Ac(a2-3)Gal(b1-4)GlcNAc6S
# In short: as §1
# [10] = target: Neu5Ac(a2-3)Gal(b1-4)[Fuc(a1-3)]GlcNAc
# In short: as §1
# [11] = target: Neu5Ac(a2-3)Gal(b1-4)[Fuc(a1-3)]GlcNAc(b1-3)Gal
# In short: as §1
# [12] = target: Neu5Ac(a2-3)Gal(b1-4)[Fuc(a1-3)]GlcNAc(b1-3)Gal(b1-4)GlcNAc
# In short: as §1
# [13] = target: Neu5Ac(a2-3)Gal(b1-4)[Fuc(a1-3)]GlcNAc(b1-3)Gal(b1-4)[Fuc(a1-3)]GlcNAc(b1-3)Gal(b1-4)[Fuc(a1-3)]GlcNAc
# In short: as §1
# [14] = target: Neu5Ac(a2-3)Gal(b1-4)[Fuc(a1-3)]GlcNAc(b1-3)GalNAc
# In short: as §1
# [15] = target: Neu5Ac(a2-3)Gal(b1-4)[Fuc(a1-3)]GlcNAc(b1-6)[Gal(b1-3)]GalNAc
# In short: as §1
# [16] = target: Neu5Ac(a2-3)Gal(b1-4)[Fuc(a1-3)]GlcNAc6S
# In short: as §1
# [17] = target: Neu5Ac(a2-3)Gal6S(b1-4)GlcNAc
# In short: as §1
# [18] = target: Neu5Ac(a2-3)Gal6S(b1-4)[Fuc(a1-3)]GlcNAc
# In short: as §1
# Neu5Ac(a2-3)GalNAc = target: Neu5Ac(a2-3)GalNAc
# In short: as §1
# [19] = target: Neu5Ac(a2-3)GalNAc(b1-4)GlcNAc
# In short: as §1
# [20] = target: Neu5Ac(a2-3)[GalNAc(b1-4)]Gal(b1-4)Glc
# In short: as §1
# [21] = target: Neu5Ac(a2-3)[GalNAc(b1-4)]Gal(b1-4)GlcNAc
# In short: as §1
# [22] = target: Neu5Ac(a2-3)[GalNAc(b1-4)]Gal(b1-4)GlcNAc(b1-3)GalNAc
# In short: as §1
# [23] = target: Neu5Ac(a2-3)[Neu5Ac(a2-6)]GalNAc
# In short: as §1
# Neu5Ac(a2-6)Gal = target: Neu5Ac(a2-6)Gal
# In short: as §1
# [24] = target: Neu5Ac(a2-6)Gal(b1-3)GlcNAc(b1-3)[Gal(b1-4)GlcNAc(b1-6)]Gal(b1-4)Glc
# In short: as §1
# Neu5Ac(a2-6)Gal(b1-4)Glc = target: Neu5Ac(a2-6)Gal(b1-4)Glc
# In short: as §1
# [25] = target: Neu5Ac(a2-6)Gal(b1-4)GlcNAc
# In short: as §1
# [26] = target: Neu5Ac(a2-6)Gal(b1-4)GlcNAc(b1-2)Man(a1-3)Man(b1-4)GlcNAc(b1-4)GlcNAc
# In short: as §1
# [27] = target: Neu5Ac(a2-6)Gal(b1-4)GlcNAc(b1-2)Man(a1-3)[Gal(b1-4)GlcNAc(b1-2)Man(a1-6)]Man(b1-4)GlcNAc(b1-4)GlcNAc
# In short: as §1
binder,measurement,setting,value
"NanI (Corynebacterium diphtheriae), C6JSW7 (protein) MTNTLESNPMTTTTGALTITFATTCDGPLAHIPHHLDLNIIHGRIQGTTAHRRIDAEDPDGLDDGLPHHLCLSVDTTGTHLFIDGYEAFSTTQTEWFDTSELTLNPHGDLTIIDHQILNHAPTPRQARNLAPAAEPLVWFAGSHLSTRDTQRISHLTHGSLRLLMKTRGTGQGGVAFQAHTINGDLTLEIIDGTLIFSVRCHDEDYVRITAPGRWDDGQIYDVVIVCGRGATDIYVDGQQLIHSPGAAFFNDLSGELSVHIGTAASGVRLFGEVQSGMIYPHVFNHHQVQRLATVEPIATQALFDCLLDGAQSYRIPSLITTDSGVIIAGADKRVSIANDAPNDIDFVLRRSVDGGRTWQPPRTILQLPDTACVTDSVLLQDHTTGRIFAFLDQFPAGIGQPNAAFGTGFDADGNRIGHFADGSTCTMPREVDQLEASFFSDPHTAPPGIVFQHPSCHLWMLTSDDDGLTWSTPRDLTPDVKEEWMRFCGTSPGNGIQLQRDTHAGRLLIPMYYTKGDQFFAAALYSDDHGDTWHRGESPDLEMYESTLVEASDGSVLLWARNQHPSGAVAHARSTDGGHSWSQVTFNPNVPEIFSQPNALRVTNPDGIIFANASQLLPFRGRGVLRMSTNDGASWQHNRVFNPRHYVYQCMTQLPDGSIGLLWEREMQGLFFSIIPMTWIMQGYAL",glycan array binding signal (z-score),[1],-0.457
same,glycan array binding signal (z-score),[2],-0.458
same,glycan array binding signal (z-score),[3],-0.037
same,glycan array binding signal (z-score),[4],-0.3
same,glycan array binding signal (z-score),[5],0.261
same,glycan array binding signal (z-score),[6],-1.01
same,glycan array binding signal (z-score),[7],0.124
same,glycan array binding signal (z-score),[8],-0.187
same,glycan array binding signal (z-score),[9],0.664
same,glycan array binding signal (z-score),[10],0.474
same,glycan array binding signal (z-score),[11],-0.247
same,glycan array binding signal (z-score),[12],0.961
same,glycan array binding signal (z-score),[13],-0.078
same,glycan array binding signal (z-score),[14],3.03
same,glycan array binding signal (z-score),[15],0.923
same,glycan array binding signal (z-score),[16],1.63
same,glycan array binding signal (z-score),[17],-0.864
same,glycan array binding signal (z-score),[18],-0.34
same,glycan array binding signal (z-score),Neu5Ac(a2-3)GalNAc,-0.251
same,glycan array binding signal (z-score),[19],-0.508
same,glycan array binding signal (z-score),[20],-0.037
same,glycan array binding signal (z-score),[21],-0.536
same,glycan array binding signal (z-score),[22],0.669
same,glycan array binding signal (z-score),[23],0.555
same,glycan array binding signal (z-score),Neu5Ac(a2-6)Gal,0.143
same,glycan array binding signal (z-score),[24],-0.363
same,glycan array binding signal (z-score),Neu5Ac(a2-6)Gal(b1-4)Glc,0.097
same,glycan array binding signal (z-score),[25],-0.005
same,glycan array binding signal (z-score),[26],-0.292
same,glycan array binding signal (z-score),[27],-0.774
